# Laboratory results from publication PMC4336329 (PLoS ONE, 2015).
# Among all 310,000 compounds or so, about 14,000 (4.5%) showed an effect of 50% or more. Effects have a minus sign here. The list shows a part of the results.
# Biological target: human ether-à-go-go-related gene (hERG) potassium channel (human, UniProt Q12809)
# Experiment: primary screen, population patch clamp on CHO cells stably expressing hERG
# 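Note: peak tail current of the secondary pulse compared with the same well before compound.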
# human ether-à-go-go-related gene (hERG) potassium channel, sequence (Q12809 whole entry, looked up): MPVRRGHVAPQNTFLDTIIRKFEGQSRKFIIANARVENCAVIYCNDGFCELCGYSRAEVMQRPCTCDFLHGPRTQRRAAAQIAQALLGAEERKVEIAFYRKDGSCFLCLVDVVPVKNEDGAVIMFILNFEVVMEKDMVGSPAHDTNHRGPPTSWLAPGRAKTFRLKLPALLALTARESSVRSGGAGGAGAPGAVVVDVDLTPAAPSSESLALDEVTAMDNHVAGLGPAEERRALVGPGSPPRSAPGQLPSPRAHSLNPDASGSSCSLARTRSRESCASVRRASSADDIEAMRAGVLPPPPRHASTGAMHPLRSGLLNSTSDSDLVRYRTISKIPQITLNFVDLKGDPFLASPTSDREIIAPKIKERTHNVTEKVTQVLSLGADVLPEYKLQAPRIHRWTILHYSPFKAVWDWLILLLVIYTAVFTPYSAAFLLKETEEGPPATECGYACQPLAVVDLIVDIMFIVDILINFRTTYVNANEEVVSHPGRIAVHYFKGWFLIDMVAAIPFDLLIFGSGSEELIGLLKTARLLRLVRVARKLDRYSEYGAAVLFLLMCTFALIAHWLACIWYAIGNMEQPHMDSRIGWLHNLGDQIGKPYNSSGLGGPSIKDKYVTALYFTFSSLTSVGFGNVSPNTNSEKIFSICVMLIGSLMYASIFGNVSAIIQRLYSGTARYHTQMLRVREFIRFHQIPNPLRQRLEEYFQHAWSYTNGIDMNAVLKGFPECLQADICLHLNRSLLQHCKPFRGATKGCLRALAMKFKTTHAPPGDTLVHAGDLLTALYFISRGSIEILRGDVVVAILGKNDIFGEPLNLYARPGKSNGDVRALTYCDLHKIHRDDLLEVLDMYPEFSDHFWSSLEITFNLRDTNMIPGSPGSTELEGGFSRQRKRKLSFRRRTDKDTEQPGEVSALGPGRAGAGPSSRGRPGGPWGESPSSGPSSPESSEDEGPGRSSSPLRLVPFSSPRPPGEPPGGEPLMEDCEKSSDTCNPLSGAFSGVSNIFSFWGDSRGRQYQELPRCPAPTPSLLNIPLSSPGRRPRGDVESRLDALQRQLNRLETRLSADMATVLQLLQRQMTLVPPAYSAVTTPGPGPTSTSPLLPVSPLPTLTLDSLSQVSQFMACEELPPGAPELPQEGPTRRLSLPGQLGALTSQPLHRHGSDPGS
row,SMILES,"hERG current change (%, negative = inhibition) at 10uM"
1,Cc1cc(C(=O)NNC(=O)c2cccc(S(=O)(=O)N3CCOCC3)c2)c2ccccc2n1,23%
2,CC1(c2nnc(-c3ccncc3)o2)CC(c2ccc(F)cc2)=NO1 (centres unmarked),-22.3%
3,COc1cccc(C(=O)C2CCCN(Cc3cccc(OCCO)c3)C2)c1 (centres unmarked),-48.7%
4,CCOC(=O)c1c(NC(=O)CSc2nnc3ccccn23)sc2c1CCC2,-18.7%
5,Cc1ccc(CNC(=O)COc2cc(O)c3c(c2)OC(C)(C)CC3=O)cc1,-8.48%
6,O=C(COc1ccc(Cl)cc1Cl)NN=C1CCCCC1,5.47%
7,CCCCC(=O)Nc1ccc(NC(=O)C(C)C)cn1,12.1%
8,Cc1cccn2cc(CNC(=O)c3ccco3)nc12,0.32%
9,Cc1ccc(NC(=O)CSc2nnc(-c3cccnc3)n2-c2ccc(C)cc2)cc1,-21.4%
10,c1ccc(C2=Nc3cccnc3C(c3ccccc3)=NN2)cc1,15.9%
11,O=C(CN1CCN(Cc2ccc(F)cc2Cl)C1=O)NCc1cccs1,-25.2%
12,O=C(CSc1nnc(-c2cccc(F)c2)o1)Nc1nncs1,14.1%
13,CCOC(=O)C1CCCN(Cc2ccc(O)c(OC)c2)C1 (centres unmarked),-6.59%
14,Cc1cccc(C(=O)NNS(=O)(=O)c2ccc(F)cc2)c1O,18.1%
15,CCC(c1nnc(SCc2nc3ccccc3s2)n1Cc1ccccc1)N(C)C (centres unmarked),-44.1%
16,COc1ccccc1NS(=O)(=O)c1cccc(NC(=O)NCCCl)c1,-17.1%
17,N#Cc1ccc(NC(=O)Nc2cccc(C#N)c2)cc1,-0.182%
18,O=c1cc(CN2CCN(Cc3ccccc3)CC2)c2ccc(O)cc2o1,-76.8%
19,CC(=O)Nc1ccc(C(=O)CSc2nnnn2C)cc1,5.55%
20,COCC(=O)N(Cc1cc2cc(C)ccc2[nH]c1=O)c1ccccc1,11.6%
21,Cc1ccc(NC(=S)NC(=O)C2CC2)c(C)c1,20%
22,O=C(/C=C/c1ccc([N+](=O)[O-])cc1)NCc1cccnc1,-42.7%
23,O=C(Nc1ccc(NC(=O)c2ccco2)nc1)c1cccnc1,-2.18%
24,Cc1oc2c(CN3CCCC3)c(O)ccc2c(=O)c1-c1ccc(Cl)cc1,-6.69%
25,O=C(C1CCCN(S(=O)(=O)c2ccc(F)cc2)C1)N1CCCCCC1 (centres unmarked),-24%
26,Cc1cccc(NS(=O)(=O)c2cc([N+](=O)[O-])ccc2C)n1,11.4%
